Measured values reported in patent publication US7182954B1, “Prebiotic oligosaccharides via alternansucrase acceptor reactions” (priority 2003, dated 2007).

Tested on: alternansucrase
Assay: Activation of alternansucrase by acceptors: rate of release of reducing sugar from sucrose
Details: 0.9 mL 10% (w/v) sucrose, 0.9 mL 10% (w/v) acceptor, 0.2 mL alternansucrase 1.5 U/mL, pH 5.4, 25° C; versus no acceptor

SMILES	rate of alternansucrase action (release of reducing sugar from sucrose) in presence of acceptor
CO[C@H]1O[C@H](CO)[C@@H](O)[C@H](O)[C@H]1O [α-methyl-D-glucoside, α-methyl-D-glucopyranoside]	drastically enhanced
OC[C@@H](O)[C@@H](O[C@H]1O[C@H](CO)[C@@H](O)[C@H](O)[C@H]1O)[C@H](O)[C@@H](O)CO [maltitol]	drastically enhanced
